Test results: a collection of fitness landscapes (doi:10.1016/j.celrep.2020.107928)
The full ranking holds about 81,000 sequences; the median of “one-hybrid fitness for binding parS DNA” is about -0.17, and the highest 2% start at about 0.51. The list shows a part of the results.

B1: Caulobacter ParB omega fusion; a variant is named by its letters at X, in order, B8GW30 (parent)
chain: MESVVVGEPGMSEGRRGLGRGLSALLGEVDAAPAQAPGEQLGGSREAPIEILQRNPDQPRRTFREEDLEDLSNSIREKGVLQPILVRPSPDTAGEYQIVAGERAWRAAQRAGLKTVPIMVRELDDLAVLEIGIIENVQRADLNVLEEALSYKVLMEKFERTQENIAQTIGKSXSHVANXMRLLXLPDEVQSYLVSGELTAXHARAIAAAADPVALAKQIIEGGLSVRETEALARKAPNLSAGKSKGGRPPRVKDTDTQALESDLSSVLGLDVSIDHRGSTGTLTITYATLEQLDDLCNRLTRGI

Variants of: B1
Experiment: one-hybrid fitness for binding parS DNA (scaled: cognate 1, non-cognate 0); higher = stronger binding
Conditions: with parS DNA site
Method in brief: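 The reporter was HIS3, with the binding site 19 bp from the promoter, in E. coli USO used for bacterial one-hybrid selection of Caulobacter ParB libraries with four specificity codons randomised. Growth was on M9 lacking histidine, with 0.1 mM IPTG and 5 mM 3-AT, for 48 hours at 37°C. Illumina sequencing covered plasmids before and after selection; three replicate libraries were pooled and variants with under 10 reads dropped. A fitness score is the log change in variant-to-wild-type read ratio, rescaled to the cognate and non-cognate references.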
With TCLY the “one-hybrid fitness for binding parS DNA” value was no more than 0.2.
In the case of TMTR, the “one-hybrid fitness for binding parS DNA” value is reported as no more than 0.2.
AHFS was tested, and the “one-hybrid fitness for binding parS DNA” value was no more than 0.2.
With LYGY the “one-hybrid fitness for binding parS DNA” value was no more than 0.2.
In the case of TRRL, the “one-hybrid fitness for binding parS DNA” value is reported as no more than 0.2.
In the case of WVDS, the “one-hybrid fitness for binding parS DNA” value is reported as no more than 0.2.
AEPV was tested, and the “one-hybrid fitness for binding parS DNA” value was no more than 0.2.
AFQC was tested, and the “one-hybrid fitness for binding parS DNA” value was no more than 0.2.
With FNTR the “one-hybrid fitness for binding parS DNA” value was no more than 0.2.
With TSVK the “one-hybrid fitness for binding parS DNA” value was no more than 0.2.
In the case of RQCN, the “one-hybrid fitness for binding parS DNA” value is reported as 0.416.
In the case of CFKS, the “one-hybrid fitness for binding parS DNA” value is reported as no more than 0.2.
AYAR was tested, and the “one-hybrid fitness for binding parS DNA” value was no more than 0.2.
With QMFY the “one-hybrid fitness for binding parS DNA” value was no more than 0.2.
WHYV was tested, and the “one-hybrid fitness for binding parS DNA” value was no more than 0.2.
In the case of TRWG, the “one-hybrid fitness for binding parS DNA” value is reported as no more than 0.2.
For HKRP, the “one-hybrid fitness for binding parS DNA” value was no more than 0.2.
For FMGT, the “one-hybrid fitness for binding parS DNA” value was no more than 0.2.
In the case of RHCE, the “one-hybrid fitness for binding parS DNA” value is reported as no more than 0.2.
In the case of LYQC, the “one-hybrid fitness for binding parS DNA” value is reported as no more than 0.2.
With KRYW the “one-hybrid fitness for binding parS DNA” value was no more than 0.2.
In the case of CKVS, the “one-hybrid fitness for binding parS DNA” value is reported as no more than 0.2.
With CLYT the “one-hybrid fitness for binding parS DNA” value was no more than 0.2.
YFCV was tested, and the “one-hybrid fitness for binding parS DNA” value was no more than 0.2.
NRDG was tested, and the “one-hybrid fitness for binding parS DNA” value was no more than 0.2.
KQWT was tested, and the “one-hybrid fitness for binding parS DNA” value was no more than 0.2.
LWWG was tested, and the “one-hybrid fitness for binding parS DNA” value was no more than 0.2.
With YTDG the “one-hybrid fitness for binding parS DNA” value was no more than 0.2.
For RSYF, the “one-hybrid fitness for binding parS DNA” value was 0.233.
SVAP was tested, and the “one-hybrid fitness for binding parS DNA” value was no more than 0.2.
In the case of GMCY, the “one-hybrid fitness for binding parS DNA” value is reported as 0.307.
In the case of KPLC, the “one-hybrid fitness for binding parS DNA” value is reported as no more than 0.2.
FAKL was tested, and the “one-hybrid fitness for binding parS DNA” value was no more than 0.2.
In the case of MAAA, the “one-hybrid fitness for binding parS DNA” value is reported as no more than 0.2.
TNNG was tested, and the “one-hybrid fitness for binding parS DNA” value was no more than 0.2.
For IFPP, the “one-hybrid fitness for binding parS DNA” value was no more than 0.2.
For RIAW, the “one-hybrid fitness for binding parS DNA” value was no more than 0.2.
In the case of RWCA, the “one-hybrid fitness for binding parS DNA” value is reported as 0.317.
In the case of PTTQ, the “one-hybrid fitness for binding parS DNA” value is reported as no more than 0.2.
In the case of WLPS, the “one-hybrid fitness for binding parS DNA” value is reported as no more than 0.2.
PMTC was tested, and the “one-hybrid fitness for binding parS DNA” value was no more than 0.2.
In the case of NTGW, the “one-hybrid fitness for binding parS DNA” value is reported as no more than 0.2.
For GRRY, the “one-hybrid fitness for binding parS DNA” value was no more than 0.2.
In the case of KHNV, the “one-hybrid fitness for binding parS DNA” value is reported as no more than 0.2.
QTTI was tested, and the “one-hybrid fitness for binding parS DNA” value was no more than 0.2.
For HSTY, the “one-hybrid fitness for binding parS DNA” value was no more than 0.2.
With FTLS the “one-hybrid fitness for binding parS DNA” value was no more than 0.2.
SWSK was tested, and the “one-hybrid fitness for binding parS DNA” value was no more than 0.2.
AIKT was tested, and the “one-hybrid fitness for binding parS DNA” value was no more than 0.2.
QARV was tested, and the “one-hybrid fitness for binding parS DNA” value was no more than 0.2.
RAKI was tested, and the “one-hybrid fitness for binding parS DNA” value was no more than 0.2.
SSCL was tested, and the “one-hybrid fitness for binding parS DNA” value was no more than 0.2.
In the case of APMV, the “one-hybrid fitness for binding parS DNA” value is reported as no more than 0.2.
With QRFE the “one-hybrid fitness for binding parS DNA” value was no more than 0.2.
With QMQT the “one-hybrid fitness for binding parS DNA” value was no more than 0.2.
In the case of SQCT, the “one-hybrid fitness for binding parS DNA” value is reported as no more than 0.2.
HCAT was tested, and the “one-hybrid fitness for binding parS DNA” value was no more than 0.2.
With NQLM the “one-hybrid fitness for binding parS DNA” value was no more than 0.2.
LHRR was tested, and the “one-hybrid fitness for binding parS DNA” value was no more than 0.2.
For DKKM, the “one-hybrid fitness for binding parS DNA” value was no more than 0.2.
MQLC was tested, and the “one-hybrid fitness for binding parS DNA” value was no more than 0.2.
For HCRC, the “one-hybrid fitness for binding parS DNA” value was no more than 0.2.
In the case of LKWF, the “one-hybrid fitness for binding parS DNA” value is reported as 0.268.
For NDRA, the “one-hybrid fitness for binding parS DNA” value was no more than 0.2.
RQPL was tested, and the “one-hybrid fitness for binding parS DNA” value was no more than 0.2.
For NVTR, the “one-hybrid fitness for binding parS DNA” value was no more than 0.2.
With QRYF the “one-hybrid fitness for binding parS DNA” value was no more than 0.2.
For YLNN, the “one-hybrid fitness for binding parS DNA” value was no more than 0.2.
For PIMV, the “one-hybrid fitness for binding parS DNA” value was no more than 0.2.
With SPLQ the “one-hybrid fitness for binding parS DNA” value was no more than 0.2.
LLPP was tested, and the “one-hybrid fitness for binding parS DNA” value was no more than 0.2.
In the case of VLRI, the “one-hybrid fitness for binding parS DNA” value is reported as no more than 0.2.
TIVL was tested, and the “one-hybrid fitness for binding parS DNA” value was no more than 0.2.
With YLKC the “one-hybrid fitness for binding parS DNA” value was no more than 0.2.
In the case of AAYH, the “one-hybrid fitness for binding parS DNA” value is reported as no more than 0.2.
With KSRL the “one-hybrid fitness for binding parS DNA” value was no more than 0.2.
For APTN, the “one-hybrid fitness for binding parS DNA” value was no more than 0.2.
In the case of HMKN, the “one-hybrid fitness for binding parS DNA” value is reported as no more than 0.2.
With AGIG the “one-hybrid fitness for binding parS DNA” value was no more than 0.2.
EDQR was tested, and the “one-hybrid fitness for binding parS DNA” value was no more than 0.2.
PKPW was tested, and the “one-hybrid fitness for binding parS DNA” value was no more than 0.2.
ENER was tested, and the “one-hybrid fitness for binding parS DNA” value was no more than 0.2.
In the case of DAMS, the “one-hybrid fitness for binding parS DNA” value is reported as no more than 0.2.
With VQVL the “one-hybrid fitness for binding parS DNA” value was no more than 0.2.
With PGPG the “one-hybrid fitness for binding parS DNA” value was no more than 0.2.
RDNL was tested, and the “one-hybrid fitness for binding parS DNA” value was no more than 0.2.
For KQNL, the “one-hybrid fitness for binding parS DNA” value was no more than 0.2.
In the case of ICGA, the “one-hybrid fitness for binding parS DNA” value is reported as no more than 0.2.
In the case of GKQG, the “one-hybrid fitness for binding parS DNA” value is reported as no more than 0.2.
In the case of PVVS, the “one-hybrid fitness for binding parS DNA” value is reported as no more than 0.2.
QGRD was tested, and the “one-hybrid fitness for binding parS DNA” value was no more than 0.2.
TVHG was tested, and the “one-hybrid fitness for binding parS DNA” value was no more than 0.2.
AHWW was tested, and the “one-hybrid fitness for binding parS DNA” value was no more than 0.2.
For PIRC, the “one-hybrid fitness for binding parS DNA” value was no more than 0.2.
In the case of PYYL, the “one-hybrid fitness for binding parS DNA” value is reported as no more than 0.2.
In the case of LARA, the “one-hybrid fitness for binding parS DNA” value is reported as no more than 0.2.
In the case of CFFG, the “one-hybrid fitness for binding parS DNA” value is reported as no more than 0.2.
In the case of FHMS, the “one-hybrid fitness for binding parS DNA” value is reported as no more than 0.2.
With NRWS the “one-hybrid fitness for binding parS DNA” value was no more than 0.2.
ISII was tested, and the “one-hybrid fitness for binding parS DNA” value was no more than 0.2.
With RNEH the “one-hybrid fitness for binding parS DNA” value was no more than 0.2.
With TPKV the “one-hybrid fitness for binding parS DNA” value was no more than 0.2.
With DIDV the “one-hybrid fitness for binding parS DNA” value was no more than 0.2.
In the case of RVWE, the “one-hybrid fitness for binding parS DNA” value is reported as no more than 0.2.
For KYAF, the “one-hybrid fitness for binding parS DNA” value was no more than 0.2.
For CLES, the “one-hybrid fitness for binding parS DNA” value was no more than 0.2.
With TWDR the “one-hybrid fitness for binding parS DNA” value was no more than 0.2.
With PSLH the “one-hybrid fitness for binding parS DNA” value was no more than 0.2.
With LREI the “one-hybrid fitness for binding parS DNA” value was no more than 0.2.
For RHSV, the “one-hybrid fitness for binding parS DNA” value was no more than 0.2.
For PVNT, the “one-hybrid fitness for binding parS DNA” value was no more than 0.2.
CGAL was tested, and the “one-hybrid fitness for binding parS DNA” value was no more than 0.2.
In the case of KYGG, the “one-hybrid fitness for binding parS DNA” value is reported as no more than 0.2.
In the case of SSYR, the “one-hybrid fitness for binding parS DNA” value is reported as no more than 0.2.
In the case of MYIP, the “one-hybrid fitness for binding parS DNA” value is reported as no more than 0.2.
In the case of SPPC, the “one-hybrid fitness for binding parS DNA” value is reported as no more than 0.2.
For NIQG, the “one-hybrid fitness for binding parS DNA” value was no more than 0.2.
In the case of HLKC, the “one-hybrid fitness for binding parS DNA” value is reported as no more than 0.2.
QYTE was tested, and the “one-hybrid fitness for binding parS DNA” value was no more than 0.2.
For TRLA, the “one-hybrid fitness for binding parS DNA” value was no more than 0.2.
TAAH was tested, and the “one-hybrid fitness for binding parS DNA” value was no more than 0.2.
For TITT, the “one-hybrid fitness for binding parS DNA” value was no more than 0.2.
For LWPL, the “one-hybrid fitness for binding parS DNA” value was no more than 0.2.
With FFPR the “one-hybrid fitness for binding parS DNA” value was no more than 0.2.
For NNYQ, the “one-hybrid fitness for binding parS DNA” value was 0.211.
With RWLE the “one-hybrid fitness for binding parS DNA” value was no more than 0.2.
QRMF was tested, and the “one-hybrid fitness for binding parS DNA” value was no more than 0.2.
With SSNK the “one-hybrid fitness for binding parS DNA” value was no more than 0.2.
For ADRM, the “one-hybrid fitness for binding parS DNA” value was no more than 0.2.
With VMLI the “one-hybrid fitness for binding parS DNA” value was no more than 0.2.
RIVT was tested, and the “one-hybrid fitness for binding parS DNA” value was 0.788.
With NVYN the “one-hybrid fitness for binding parS DNA” value was no more than 0.2.
For NTYV, the “one-hybrid fitness for binding parS DNA” value was no more than 0.2.
With CPYA the “one-hybrid fitness for binding parS DNA” value was no more than 0.2.
LGGS was tested, and the “one-hybrid fitness for binding parS DNA” value was no more than 0.2.
For MLTV, the “one-hybrid fitness for binding parS DNA” value was no more than 0.2.
With KHVG the “one-hybrid fitness for binding parS DNA” value was no more than 0.2.
KCHT was tested, and the “one-hybrid fitness for binding parS DNA” value was no more than 0.2.
In the case of HWLR, the “one-hybrid fitness for binding parS DNA” value is reported as no more than 0.2.
RFNY was tested, and the “one-hybrid fitness for binding parS DNA” value was 0.444.
KKLP was tested, and the “one-hybrid fitness for binding parS DNA” value was no more than 0.2.
MTCP was tested, and the “one-hybrid fitness for binding parS DNA” value was no more than 0.2.
With YYAG the “one-hybrid fitness for binding parS DNA” value was no more than 0.2.
For AMGL, the “one-hybrid fitness for binding parS DNA” value was no more than 0.2.
In the case of CVWT, the “one-hybrid fitness for binding parS DNA” value is reported as no more than 0.2.
AASQ was tested, and the “one-hybrid fitness for binding parS DNA” value was no more than 0.2.
With YLAG the “one-hybrid fitness for binding parS DNA” value was no more than 0.2.
KSDG was tested, and the “one-hybrid fitness for binding parS DNA” value was no more than 0.2.
For DRFC, the “one-hybrid fitness for binding parS DNA” value was no more than 0.2.
With MIQG the “one-hybrid fitness for binding parS DNA” value was no more than 0.2.
DRNV was tested, and the “one-hybrid fitness for binding parS DNA” value was no more than 0.2.
DASD was tested, and the “one-hybrid fitness for binding parS DNA” value was no more than 0.2.
In the case of KRLR, the “one-hybrid fitness for binding parS DNA” value is reported as no more than 0.2.
